Some of the results follow. At the low end of the ranking the order means little.
These sequences were tested against SIX1-Q177R homeodomain (UniProt Q15475) (assay: universal protein binding microarray). Conditions: Universal all-10-mer PBM (8x60K, AMADID 030236), 300 nM GST-tagged protein, Alexa Fluor 488 anti-GST; buffer, salt, pH and temperature not stated; high values mean tight binding; most listed sequences are background and not binding sites; double strand, one strand shown.
Work on ATTCACCC yielded a binding signal of 0.048 E-score. CCATTGGG was tested, and the binding signal was 0.0654 E-score. Work on GTGGGATA yielded a binding signal of 0.126 E-score. CTGAGTAA showed a binding signal of -0.242 E-score. Sequence ACCGGCGA has a binding signal of -0.0468 E-score. ATCTTCTA showed a binding signal of -0.227 E-score. With GTAAGACA the binding signal was 0.102 E-score. Work on GTGCCTCA yielded a binding signal of -0.12 E-score. In the case of ATGATTGC, the binding signal is reported as -0.0329 E-score. In the case of CGATCCGC, the binding signal is reported as 0.117 E-score. CATCACGG showed a binding signal of -0.168 E-score. In the case of GCAGTTCA, the binding signal is reported as -0.251 E-score. For CACTAGCA, the binding signal was 0.163 E-score. With CCTCTTCC the binding signal was -0.0987 E-score. For AACACTCT, the binding signal was 0.35 E-score. In the case of TCGTACCA, the binding signal is reported as -0.115 E-score. AGACCGTA showed a binding signal of -0.235 E-score. CGTCGACA showed a binding signal of 0.0742 E-score. For ACGAGGAA, the binding signal was 0.0788 E-score. GTTGCAAA showed a binding signal of -0.181 E-score. Work on CACAATAC yielded a binding signal of 0.0874 E-score. CTACATAC gave a binding signal of -0.0222 E-score. AGGCCGGC was tested, and the binding signal was -0.126 E-score. ATTACCTA was tested, and the binding signal was -0.00668 E-score. GCAAAATA gave a binding signal of -0.0852 E-score. TACACACA showed a binding signal of 0.259 E-score. Sequence CGGTTAAC has a binding signal of 0.0714 E-score. AGGAATGC gave a binding signal of -0.333 E-score. CCACGGAC gave a binding signal of -0.197 E-score. ATGGTAGG gave a binding signal of -0.0293 E-score. Sequence GACATTGC has a binding signal of -0.159 E-score. CCCTCTGC gave a binding signal of -0.0846 E-score. In the case of CTTACATA, the binding signal is reported as -0.129 E-score. In the case of AGCACCAA, the binding signal is reported as 0.196 E-score. Work on GGCAGCTA yielded a binding signal of -0.193 E-score. ACCCTGAC was tested, and the binding signal was 0.0909 E-score. AGAGCGGA gave a binding signal of -0.234 E-score. Sequence CACGACCA has a binding signal of 0.227 E-score. Sequence GTGTATCA has a binding signal of 0.392 E-score. Work on CGTATAAA yielded a binding signal of 0.0911 E-score. Sequence CTCCGCTA has a binding signal of -0.14 E-score. AAAGCGCC was tested, and the binding signal was -0.134 E-score. Sequence CCTAAATC has a binding signal of -0.0794 E-score. In the case of GTCGCATA, the binding signal is reported as -0.053 E-score. CACAATGA was tested, and the binding signal was 0.0742 E-score. With AGCATTTG the binding signal was -0.0392 E-score. GCTCTCGA was tested, and the binding signal was -0.133 E-score. ACTATGCG gave a binding signal of 0.17 E-score. For CCCACACG, the binding signal was 0.288 E-score. In the case of AACTATCT, the binding signal is reported as -0.36 E-score. For CATCTACG, the binding signal was -0.055 E-score. Sequence ATAAGACA has a binding signal of 0.097 E-score. With AAAGCTCT the binding signal was -0.0399 E-score. In the case of AACTGCTA, the binding signal is reported as -0.0875 E-score. AGGGTACT was tested, and the binding signal was 0.122 E-score. CGTGGTGA was tested, and the binding signal was -0.152 E-score. Sequence GGGGTTAC has a binding signal of 0.261 E-score. AAGTTGGG gave a binding signal of 0.0943 E-score. AGAGATGG was tested, and the binding signal was -0.0936 E-score. AAGGGCGT gave a binding signal of -0.0321 E-score. Sequence GACGGGAC has a binding signal of -0.267 E-score. CGCAGCCA showed a binding signal of 0.0178 E-score. CCATGAGG showed a binding signal of -0.112 E-score. Work on ATGTTGCC yielded a binding signal of -0.22 E-score. CGAATGGA showed a binding signal of 0.0397 E-score. For AATGGTCC, the binding signal was -0.189 E-score. Sequence ACCGCTGG has a binding signal of 0.107 E-score. For CCTATGAG, the binding signal was 0.122 E-score. ACTGGTAA was tested, and the binding signal was -0.103 E-score. In the case of AACACTGT, the binding signal is reported as 0.344 E-score. Work on GCCTGGCA yielded a binding signal of -0.256 E-score. GACGCTCC was tested, and the binding signal was -0.137 E-score. ACTACGGA was tested, and the binding signal was -0.0336 E-score. GTACAATA was tested, and the binding signal was -0.0198 E-score. In the case of AGCGCGAA, the binding signal is reported as -0.0336 E-score. With AATCCACG the binding signal was -0.216 E-score. Sequence CAACGAGC has a binding signal of 0.0176 E-score. For CTTCCGCA, the binding signal was 0.0572 E-score. With CTGCGCCA the binding signal was -0.18 E-score. Work on ATATTAAC yielded a binding signal of -0.0434 E-score. Sequence GCTATTAC has a binding signal of 0.0419 E-score. AAAGGCGT gave a binding signal of -0.177 E-score. ATCGACGC showed a binding signal of -0.0739 E-score. Sequence GCAGCTAA has a binding signal of -0.117 E-score. CATAGAGC was tested, and the binding signal was -0.148 E-score. Work on ACGCCCCC yielded a binding signal of 0.19 E-score. Work on TCGAGGAA yielded a binding signal of -0.184 E-score. Sequence ATACCAAG has a binding signal of 0.0629 E-score. In the case of ACGTCTGG, the binding signal is reported as -0.0903 E-score. Work on CCATGCGG yielded a binding signal of -0.0792 E-score. CCATTATC gave a binding signal of 0.0133 E-score. Sequence GATGTAAC has a binding signal of 0.0393 E-score. In the case of AGGTGATG, the binding signal is reported as -0.0885 E-score. Sequence ACACAATG has a binding signal of 0.164 E-score. Sequence GTCTTCTA has a binding signal of -0.0243 E-score. Sequence ATTCACGA has a binding signal of -0.115 E-score. In the case of CGTGGCAA, the binding signal is reported as -0.176 E-score. AGGCAGGC showed a binding signal of -0.237 E-score. Sequence GGGTCCTA has a binding signal of 0.0332 E-score. Work on AGTTTGGA yielded a binding signal of -0.0686 E-score. Sequence CTGTTCTA has a binding signal of -0.117 E-score. Work on ACTACTAT yielded a binding signal of -0.0262 E-score. For ACTGACCC, the binding signal was 0.213 E-score. Sequence AATACGGC has a binding signal of -0.0017 E-score. CTCGATAC was tested, and the binding signal was 0.121 E-score. CATCAATG gave a binding signal of -0.202 E-score. AACGAGCG gave a binding signal of 0.099 E-score. In the case of AAGTTAGA, the binding signal is reported as 0.0264 E-score. For AACGCACC, the binding signal was 0.146 E-score. For CGAAGATA, the binding signal was 0.0654 E-score. For TAGAACTA, the binding signal was -0.136 E-score. Work on ATCACTGA yielded a binding signal of -0.173 E-score. With GAAAACAA the binding signal was -0.0374 E-score. ACGCAGTG was tested, and the binding signal was 0.212 E-score. GAACCGAC showed a binding signal of 0.0354 E-score. For ATCGCGAC, the binding signal was -0.211 E-score. With ACACGTAT the binding signal was 0.388 E-score. CACCAGCA was tested, and the binding signal was 0.341 E-score. GAGGATGC was tested, and the binding signal was -0.0878 E-score. For AAGGTCGT, the binding signal was -0.11 E-score. GATTCGCA was tested, and the binding signal was -0.0516 E-score. ATATACCC was tested, and the binding signal was 0.238 E-score. AAGAGGAC gave a binding signal of -0.0666 E-score. For CGCGGCGC, the binding signal was -0.00608 E-score. In the case of CTTAAACA, the binding signal is reported as 0.0215 E-score. CTGCTTTC showed a binding signal of -0.0783 E-score. ATCCGTTA showed a binding signal of -0.106 E-score. Work on GGACACCA yielded a binding signal of 0.483 E-score. For AACTCCGC, the binding signal was 0.0512 E-score. For GCTGCTAA, the binding signal was 0.083 E-score. Sequence GTCAAACA has a binding signal of 0.189 E-score. AGACTACG showed a binding signal of -0.202 E-score. AAGTGTTG gave a binding signal of 0.289 E-score. AGAAAACC showed a binding signal of -0.234 E-score. ACAGAGGA showed a binding signal of -0.0252 E-score. GCCAAAAA was tested, and the binding signal was -0.194 E-score. AATTGATC gave a binding signal of 0.00817 E-score. ATCCCGTA gave a binding signal of 0.099 E-score. Work on ACCAGGGA yielded a binding signal of 0.121 E-score. Work on CGGTTAAA yielded a binding signal of -0.123 E-score. ACCTAGGC gave a binding signal of -0.0374 E-score. For AGTGGAAG, the binding signal was -0.0981 E-score. In the case of GTATCCGA, the binding signal is reported as 0.312 E-score. AGAGATAA was tested, and the binding signal was -0.168 E-score. With CATGGAAC the binding signal was -0.169 E-score. GGGGACCA showed a binding signal of -0.0564 E-score. In the case of CTTAGGAC, the binding signal is reported as 0.0624 E-score. In the case of CTCTACAC, the binding signal is reported as 0.391 E-score. GATTAACA was tested, and the binding signal was 0.162 E-score. For GAAGTAGC, the binding signal was -0.13 E-score. CAAATCGC showed a binding signal of -0.118 E-score. For AAACTGAC, the binding signal was 0.0245 E-score. ATTCCAAA was tested, and the binding signal was -0.0103 E-score. ACTAGCAA was tested, and the binding signal was 0.0822 E-score. Work on CCTCGAAC yielded a binding signal of -0.015 E-score. With ATCAAACG the binding signal was -0.288 E-score. In the case of AGAACGAT, the binding signal is reported as -0.0942 E-score. For AACTCCCA, the binding signal was 0.0712 E-score. In the case of TGGACTAA, the binding signal is reported as -0.15 E-score. ATCATGTA was tested, and the binding signal was -0.0846 E-score. Work on GCGTATCC yielded a binding signal of 0.176 E-score. Work on GCATTACC yielded a binding signal of -0.0109 E-score. Work on GCGGGCTA yielded a binding signal of -0.118 E-score. TAGGACCA gave a binding signal of -0.125 E-score. Sequence ATATGCAC has a binding signal of 0.0852 E-score. Work on ACCTCGAG yielded a binding signal of 0.00722 E-score. CGCGCGAG was tested, and the binding signal was -0.174 E-score. In the case of AGTAGACT, the binding signal is reported as -0.146 E-score. ACTGAAAT gave a binding signal of -0.129 E-score. Work on GATCGGCC yielded a binding signal of 0.0859 E-score. Work on ACGATATG yielded a binding signal of 0.0101 E-score. AGTGATTC gave a binding signal of -0.0729 E-score.

— PMC10668032
